Consider 172 sequences from PMC10668032.

This is one part of the list. At the low end of the ranking the order means little.

In the assay the target is SIX1 homeodomain (reference allele) (UniProt Q15475). Briefly: universal protein binding microarray. The conditions noted are these: Universal all-10-mer PBM (8x60K, AMADID 030236), 300 nM GST-tagged protein, Alexa Fluor 488 anti-GST; buffer, salt, pH and temperature not stated; high values mean tight binding; most listed sequences are background and not binding sites; double strand, one strand shown.
Regarding GAAGAAAC, the binding signal was -0.302 E-score.
On to GCGGAGCA, for which the binding signal was -0.0867 E-score.
With GAAGGATA, the binding signal turned out to be 0.268 E-score.
Then ATTCCTTG, with 0.0804 E-score.
The same measure for ACCGGGCC: -0.0485 E-score.
The same measure for CAGCCTCC: -0.193 E-score; for GGAAGGCC: -0.308 E-score.
Regarding CTTAATGC, the binding signal is -0.054 E-score.
The same measure for CGGGAAGA: 0.0155 E-score; for ATTTTTTC: -0.0643 E-score.
In the case of CACGAATC, the binding signal is -0.0746 E-score.
Then GGCACGGA, with -0.0973 E-score.
The same measure for GAAGATTA: 0.144 E-score; for AATATTTC: -0.0866 E-score.
For the sequence CTAATGCA, the binding signal was -0.131 E-score.
The same measure for GCGCGTCC: -0.124 E-score.
Consider ATGTCACG, for which the binding signal is -0.0862 E-score.
As for AAGATCGG, the binding signal was 0.174 E-score.
ATACTAGC: the binding signal is 0.245 E-score.
The same measure for GTGCGAAC: -0.0853 E-score; for CATTTGCG: -0.198 E-score; for AAGACAGT: -0.186 E-score.
Turning to GAGTTACA, the binding signal is -0.0412 E-score.
The same measure for GTCTCACA: 0.138 E-score; for ACCCCTGC: 0.0292 E-score; for GCCTCTTA: -0.173 E-score.
As to TCCCAAGA, the binding signal was determined as 0.102 E-score.
Regarding CCTAGGCG, the binding signal was -0.141 E-score.
As for ACGATACG, the binding signal was determined as 0.432 E-score.
The same measure for TACCGCCA: 0.0097 E-score; for CCGATATA: 0.333 E-score.
The same measure for ACCATGAG: 0.0827 E-score.
The same measure for AACCAGCT: -0.0685 E-score; for CGCAACAC: -0.0997 E-score.
Regarding AGGTTCAG, the binding signal was 0.0424 E-score.
Regarding ACGCTCTC, the binding signal is -0.145 E-score.
Then ACATGGCT, with -0.106 E-score.
For CGTGCAAA, the binding signal was -0.117 E-score.
Take GTTATGGA: the binding signal is -0.103 E-score.
Then CTGGCCGA, with -0.175 E-score; and GCCGCGGA, with -0.00539 E-score; and TGAGCAAA, with -0.101 E-score.
The same measure for GGCTGCCC: -0.0149 E-score; for ATGGAGAG: -0.071 E-score.
Then AGATTCCT, with 0.0599 E-score; and CGTACCTC, with -0.246 E-score.
On to AAACCAAA, for which the binding signal is -0.177 E-score.
The same measure for CAAGTTTC: -0.0788 E-score.
The same measure for AATTAATA: 0.191 E-score; for CATCAGAC: 0.0453 E-score.
With ATGCCACG, the binding signal was -0.0265 E-score.
The same measure for AAACATTT: -0.239 E-score; for ACTTCTTC: -0.202 E-score.
Then CGCTCGTA, with 0.06 E-score.
For the sequence AGAATGTC, the binding signal was -0.115 E-score.
The same measure for AATACTTG: 0.151 E-score; for CGACATAC: -0.0677 E-score; for GGGATACC: 0.455 E-score.
For GCGGCGCC, the binding signal is -0.12 E-score.
Turning to ATGCGGTC, the binding signal was -0.008 E-score.
The same measure for CGATAACG: -0.0326 E-score; for AGAATGGG: -0.138 E-score.
Then CGACTATA, with -0.0154 E-score.
Then AGTAGCTC, with -0.12 E-score.
ACAATGCC: the binding signal is -0.217 E-score.
With CGCCGCAA, the binding signal is -0.196 E-score.
Consider GTTGATTA, for which the binding signal is -0.093 E-score.
The same measure for TAAATGTA: -0.0625 E-score; for ACAGGGTG: -0.152 E-score; for ACTGTCCT: -0.0567 E-score.
On to AAGCGCGC, for which the binding signal is -0.223 E-score.
The same measure for GAGAAAAA: -0.276 E-score; for CATAAATG: -0.116 E-score.
The same measure for GCACAGTA: -0.0604 E-score.
With ACTCCTCT, the binding signal was determined as 0.0686 E-score.
Turning to GATCGTGA, the binding signal turned out to be 0.229 E-score.
Then AAATATAT, with 0.147 E-score.
Turning to CTAAGGGA, the binding signal turned out to be 0.101 E-score.
The same measure for GGCTAAGA: 0.0134 E-score; for CATAGGTA: 0.108 E-score.
The same measure for GGATCAAA: 0.372 E-score; for GATGGAGC: -0.0452 E-score.
Take AGCCGCCA: the binding signal is -0.0686 E-score.
The same measure for AATCTAGA: 0.0851 E-score.
Then GACTCTAC, with -0.141 E-score; and GCCATGGA, with -0.148 E-score; and CCCTACGA, with 0.0996 E-score.
The same measure for CCAATTGA: -0.0424 E-score; for AAAAGTGA: -0.13 E-score.
For AGACCGGA, the binding signal was determined as 0.157 E-score.
Then ACATTAGG, with -0.0929 E-score.
Consider AACCTGGC, for which the binding signal is -0.124 E-score.
Then GATTGCTA, with -0.00049 E-score; and CAATTATG, with -0.119 E-score; and TTACGAAA, with -0.22 E-score.
Then ATTTTCGG, with -0.0647 E-score.
In the case of GTAGGGAC, the binding signal is -0.118 E-score.
The same measure for GTAAGTAA: -0.192 E-score.
Turning to ACCGCTTC, the binding signal was -0.022 E-score.
Then GTCTGTAA, with 0.0216 E-score; and CCGGCACG, with -0.137 E-score; and GATCAGAA, with 0.138 E-score.
For the sequence ACAACCGT, the binding signal was -0.143 E-score.
Then CAGCGTGG, with -0.115 E-score.
CTCCTACA: the binding signal was -0.0512 E-score.
The same measure for CCCGTAGC: -0.0697 E-score; for CATCAAGC: -0.128 E-score.
On to AGAAATAG, for which the binding signal is -0.0632 E-score.
The same measure for ACAAAAGG: -0.0158 E-score; for CGTATACG: 0.317 E-score.
Regarding AACTGAAT, the binding signal is -0.22 E-score.
Then CACGGTGA, with 0.0519 E-score; and AAGGACGC, with -0.278 E-score.
Then CGACCGTC, with -0.0246 E-score.
The same measure for TCTTCGCA: -0.114 E-score; for ACGTTAAG: -0.234 E-score; for AACTGTTA: -0.257 E-score.
AGCCCACA: the binding signal is -0.0431 E-score.
The same measure for GCCCTGCA: -0.0628 E-score.
On to TATCAGGA, for which the binding signal is 0.397 E-score.
The same measure for CCACGGGC: -0.178 E-score; for ACAGCAGC: -0.289 E-score; for AGGGGCTG: 0.103 E-score.
With CATGGCGG, the binding signal is -0.054 E-score.
CGCCAGTA: the binding signal came out at 0.106 E-score.
As to ATCCGTCC, the binding signal is 0.246 E-score.
Then AGCGCTAT, with 0.0782 E-score; and AGAACCGG, with -0.0269 E-score.
With ACTTAACC, the binding signal is -0.185 E-score.
On to ACCCGTCC, for which the binding signal is -0.0685 E-score.
For TGTTAACA, the binding signal is -0.0744 E-score.
With ATGGACAG, the binding signal turned out to be 0.0136 E-score.
Regarding ATCGACTG, the binding signal was -0.0117 E-score.
AAACGCTC: the binding signal was -0.254 E-score.
Then CTCGAGTA, with 0.119 E-score; and AATCGAAT, with -0.0704 E-score.
The same measure for AAGCACTC: -0.169 E-score.
Then AGGCATCG, with 0.0568 E-score.
CAACCCTC: the binding signal is -0.0998 E-score.
Then AAGCAGAG, with -0.272 E-score; and AAACCGAC, with 0.0431 E-score.
Turning to GTCCCCAC, the binding signal was -0.231 E-score.
Then CCCGTCTA, with 0.159 E-score; and GCCGCCCA, with -0.146 E-score.
Then TTCGCAAA, with -0.148 E-score; and GAGCCTTA, with -0.0917 E-score.
Take ACGCTTTC: the binding signal is -0.291 E-score.
The same measure for AACAACGA: -0.0207 E-score.
Consider CCGCACCC, for which the binding signal came out at 0.0187 E-score.
For the sequence AGTCGACT, the binding signal is -0.0443 E-score.
Take ACTTTAAA: the binding signal is -0.103 E-score.
Take CTGCTCCC: the binding signal was -0.0552 E-score.
The same measure for TCCGGGAA: -0.0497 E-score; for GAAGGGTC: -0.217 E-score; for CCTGCGAC: 0.0455 E-score.
For the sequence ACGCATGA, the binding signal is -0.128 E-score.
In the case of TACAACGA, the binding signal was found to be 0.00196 E-score.
The same measure for GACGCGGC: -0.0248 E-score; for AATTGACA: 0.0335 E-score; for GTTGGCCA: -0.268 E-score.
The same measure for AATACGGT: 0.231 E-score; for GATCCGGA: 0.405 E-score; for AGCGATTA: 0.00155 E-score.
The same measure for CCGTACAG: -0.175 E-score.
Regarding ATGGGGTG, the binding signal was 0.123 E-score.
The same measure for AGTGCGAC: -0.238 E-score.
Take CCGCGCAA: the binding signal is -0.105 E-score.
With AATTGCTG, the binding signal is -0.276 E-score.
For the sequence TCGTGAAA, the binding signal was -0.159 E-score.
Take CCACAGCC: the binding signal was -0.197 E-score.
AGTGCACG: the binding signal was -0.215 E-score.
The same measure for CTTGCTAC: -0.0272 E-score.
